Test results taken from PMC6888108.
Results are given in words; binding and its absence hold for the method and conditions named. Some binding calls cover weakened binding; strength is not graded here.

T1: DRP1A (At5g42080), dynamin-related protein 1A (Arabidopsis thaliana) (UniProt P42697)
T1 sequence: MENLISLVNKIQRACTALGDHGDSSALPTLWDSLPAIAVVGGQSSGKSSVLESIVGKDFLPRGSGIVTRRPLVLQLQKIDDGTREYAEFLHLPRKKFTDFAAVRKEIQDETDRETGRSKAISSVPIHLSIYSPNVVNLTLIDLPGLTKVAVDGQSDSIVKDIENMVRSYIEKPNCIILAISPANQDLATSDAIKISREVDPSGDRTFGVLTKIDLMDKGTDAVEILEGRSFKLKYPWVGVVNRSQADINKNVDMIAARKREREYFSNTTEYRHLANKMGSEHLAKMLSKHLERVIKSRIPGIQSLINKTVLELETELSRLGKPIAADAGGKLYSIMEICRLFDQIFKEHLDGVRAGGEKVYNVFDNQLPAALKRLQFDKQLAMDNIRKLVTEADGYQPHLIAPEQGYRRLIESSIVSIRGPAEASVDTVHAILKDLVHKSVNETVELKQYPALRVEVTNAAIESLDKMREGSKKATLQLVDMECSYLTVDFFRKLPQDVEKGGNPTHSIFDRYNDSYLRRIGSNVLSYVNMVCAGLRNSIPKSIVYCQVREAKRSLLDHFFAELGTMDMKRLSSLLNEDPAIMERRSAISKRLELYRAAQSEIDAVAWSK

T2: C-terminal cytoplasmic fragment of the formin FH5 comprising the FH1 and FH2 domains (FH5_Cterm) (Arabidopsis thaliana) (UniProt Q94B77)
T2 sequence: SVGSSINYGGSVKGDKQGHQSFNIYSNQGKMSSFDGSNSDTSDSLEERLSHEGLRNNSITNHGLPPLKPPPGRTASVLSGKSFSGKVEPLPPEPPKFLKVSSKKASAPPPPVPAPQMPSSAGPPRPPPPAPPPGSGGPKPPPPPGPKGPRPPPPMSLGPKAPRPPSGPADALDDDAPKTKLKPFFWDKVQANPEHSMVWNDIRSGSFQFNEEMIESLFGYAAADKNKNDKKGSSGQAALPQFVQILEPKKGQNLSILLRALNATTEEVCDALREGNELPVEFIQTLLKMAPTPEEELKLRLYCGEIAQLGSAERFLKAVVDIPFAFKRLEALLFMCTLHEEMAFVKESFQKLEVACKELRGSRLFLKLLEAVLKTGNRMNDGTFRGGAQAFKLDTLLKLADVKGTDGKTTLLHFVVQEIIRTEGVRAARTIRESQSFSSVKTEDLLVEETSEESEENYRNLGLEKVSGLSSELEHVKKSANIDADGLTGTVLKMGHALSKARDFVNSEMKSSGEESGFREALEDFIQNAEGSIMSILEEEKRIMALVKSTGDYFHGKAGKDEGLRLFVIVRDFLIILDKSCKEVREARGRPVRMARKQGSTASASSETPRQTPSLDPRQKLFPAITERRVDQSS


Key:
Test in all cases: two-hybrid; … GAL4 Two-Hybrid System 3, yeast AH109; DBD fusions (pGBKT7) with AD fusions (pGADT7); dilution series on -His -Leu -Trp with 5 mM 3-aminotriazole and on -Ade -His -Leu -Trp (stringent)
[1] = target: T1, DRP1A (At5g42080), dynamin-related protein 1A (Arabidopsis thaliana)
[2] = target: SH3P2 (AtSH3P2, At4g34660), Arabidopsis thaliana SH3 and BAR domain-containing protein (Arabidopsis thaliana) (UniProt Q8VWF1)
[3] = target: T2, C-terminal cytoplasmic fragment of the formin FH5 comprising the FH1 and FH2 domains (FH5_Cterm) (Arabidopsis thaliana)

| binding [1] | binding [2] | binding [3] | Binder |
| --- | --- | --- | --- |
| binds | binds | no binding | SH3P2 (AtSH3P2, At4g34660), Arabidopsis thaliana SH3 and BAR domain-containing protein (protein, UniProt Q8VWF1 1-368) MDAIRKQASRLREQVARQQQAVFKQFGGGGYGSGLADEAELNQHQKLEKLYISTRAAKHYQRDIVRGVEGYIVTGSKQVEIGTKLSEDSRKYGSENTCTNGNVLTRAALNYGRARAQMEKERGNMLKALGTQVAEPLRAMVLGAPLEDARHLAQRYDRMRQEAEAQATEVARRQAKARESQGNPDILMKLESAEAKLHDLKSNMTILGKEAASALASVEDQQQKLTLERLLSMVESERAYHQRVLQILDQLEGEMVSERQRIEAPSTPSSADSMPPPPSYEEANGVFASQMHDTSTDSMGYFLGEVLFPYHGVTDVELSLSTGEYVVVRKVTGSGWAEGECKGKAGWFPYGYIERRERVLASKVSEVF |
| no binding |  | binds | SH3P3 (AtSH3P3, At4g18060), Arabidopsis thaliana SH3 and BAR domain-containing protein (protein, UniProt Q8L7W0 1-351) MDAFRRQASKLRDQVAKQQLAVIKQFSGTGYESSDVMVIDELEMQRHHQLDKLYRSTRSAKEFQRDIVKAAEAFTTIGLRHIEAGTKLSEDCCRYGNENSQNIDENILAKAAAIYGDARKHVDKEQEDFNKLLASQVLDPLRAMVAGSPLEDARHLAQRYSRMRQEAETHATEVSRRQARVREAPIPENVAKLQLAEAKMQELKANMAVLGKEATAALAAVESQQHRLTFQRLVAMVEGEKNYHLRIAAILSDIEAEMVTEKQHKESAPPAIPTENGSEKTSYFLAEVIHPFSAASEKELDLDKGDYIVVRKVSQTGWAEGECKGKAGWFPMAYIEKRQRLPTTNFAAEVY |
